Test results: article PMC8713996, “An anti-tuberculosis compound screen using a zebrafish infection model identifies an aspartyl-tRNA synthetase inhibitor” (Disease Models & Mechanisms, 2021)

Experiments:
[1] = system: M. marinum-tdTomato yolk-infected zebrafish embryos; settings: in vivo
M. tuberculosis H37Rv = assay: microbe, parasite or virus in culture; type: cell-based, Mycobacterium tuberculosis; settings: Mycobacterium tuberculosis, H37RV, read-out: MIC90 Mtb in vitro
M. marinum M^USA = assay: microbe, parasite or virus in culture; type: cell-based, Mycobacterium marinum; settings: Mycobacterium marinum, read-out: MIC90 Mmar in vitro
[2] = system: Mtb-infected THP-1 macrophages; assay: microbe, parasite or virus in culture; type: cell-based; settings: Mycobacterium tuberculosis, read-out: MIC50 Mtb ex vivo
[3] = cited from earlier work

Row | SMILES | MIC90 (M. tuberculosis H37Rv) | MIC90 (M. marinum M^USA) | MIC50 [2] | also measured
1 | O=C(O)c1ccc(Nc2nc(-c3cccs3)cs2)cc1O [GSK93A] |  |  |  | Embryos surviving ([1]; casper): 40%; Bacterial load in infected embryos, dose-response [1]: Neither GSK93A nor C1 showed activity; Toxicity towards zebrafish embryos [1]: toxic
2 | O=c1c2cc(Cl)ccc2oc2nc3n(c(=O)c12)CCCS3 [TBA161, 9-chloro-3,4-dihydro-chromeno[2′,3′:4,5]pyrimido[2,1-b][1,3]thiazine-6,7-dione] | 14.6 ± 7.3 µM (≈ 4.68 µg/mL) | 3.1 ± 0.6 µM (≈ 0.994 µg/mL) | 2.5 ± 1 µM (≈ 0.802 µg/mL) | 
3 | O=c1c2cc(Cl)cc(Cl)c2oc2nc3n(c(=O)c12)CCCS3 [TBA161-C, 9,11-dichloro-3,4-dihydro-chromeno[2′,3′:4,5]pyrimido[2,1-b][1,3]thiazine-6,7-dione] | 1.3 ± 0.7 µM (≈ 0.462 µg/mL) | 1.3 ± 0.1 µM (≈ 0.462 µg/mL) | 1.7 ± 0.7 µM (≈ 0.604 µg/mL) | 
4 | CSc1nc2oc3ccc(Cl)cc3c(=O)c2c(=O)n1C(C)C [TBA161-D, 7-chloro-3-isopropyl-2-(methylsulfanyl)-chromeno[2,3-d]pyrimidine-4,5-dione] | > 20 µM | > 20 µM | > 30 µM | 
5 | NNC(=O)c1ccncc1 [isoniazid] |  |  |  | Concentration in blood as share of the external drug concentration ([3]; zebrafish, ref van Wijk et al., 2020b): 20%
6 | CC(=O)Nc1ccc(O)cc1 [paracetamol] |  |  |  | Blood concentration in the embryo as share of the external concentration in the fish water ([3]; zebrafish embryo, ref Van Wijk et al., 2019b): 10%

≈ marks a conversion by molar mass, not a printed value.
